From PubChem BioAssay AID894 (National Center for Advancing Translational Sciences (NCATS), 2007)
Among all 150,000 compounds or so, about 6,500 (4.3%) were called active. The shares of active, inactive and inconclusive entries below differ from those in the screen. The call rests on the fitted dose curve; in most records, active means well fitted inhibition curve with a large enough effect (not every such curve was filed as active); inconclusive means small, poorly fitted or top-dose-only effect, or another doubt; inactive means no such curve, though single readings can be large or run the other way. No potency is given beside an inconclusive call; the fits are too rough.

target: 15-hydroxyprostaglandin dehydrogenase [NAD(+)] (Homo sapiens) (UniProt P15428); assay: qHTS Assay for Inhibitors of HPGD (15-Hydroxyprostaglandin Dehydrogenase); settings: purified HPGD, NADH fluorescence kinetic, PGE2 substrate; activity change, negative = inhibition: active compounds read low
Chain of UniProt P15428 (P15428 whole entry, looked up): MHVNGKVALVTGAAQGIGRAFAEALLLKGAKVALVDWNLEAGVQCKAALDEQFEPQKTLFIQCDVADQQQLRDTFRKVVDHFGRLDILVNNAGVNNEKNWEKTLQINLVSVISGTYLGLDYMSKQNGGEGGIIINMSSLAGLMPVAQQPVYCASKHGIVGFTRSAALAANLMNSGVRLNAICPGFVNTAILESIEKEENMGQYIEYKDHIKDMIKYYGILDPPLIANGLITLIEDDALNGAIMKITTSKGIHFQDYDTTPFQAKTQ
Summary of the method: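 NADH formation kinetics: reaction with 30 uM PGE2 and 1 mM NAD+ (final), 20 nM enzyme, Tris-HCl pH 8 with Tween 20, after 15 min compound preincubation at room temperature. Fluorescence change, last versus first of five reads.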
On the % scale 0 is the no-effect control and ±100 the full control effect; potency means the concentration at half of the fitted maximal effect; tags describe the fitted curve by direction and shape.

Structure (SMILES) | activity change, negative = inhibition | Potency
Cc1cc(N2CCOCC2)nc(SCC(=O)c2ccc(Cl)cc2)n1 | inactive: -14.6% | –
COc1cccc(C2SCC(=O)N2c2ccc(C)cc2)c1OC (configuration not stated) | inactive: -6.03% | –
CCCCSc1c(C)c2cc3c(cc2[nH]c1=O)OCO3 | – | inconclusive [inhibitor, single point]
COc1cc2cc(CN(C(=O)NC3CCCCC3)C3CCCC3)c(=O)[nH]c2cc1OC | – | inconclusive [inhibitor, partial curve]
Nc1nc(SCc2ccc(Cl)cc2)[nH]c(=O)c1-c1ccccc1 | inactive: -6.45% | –
O=c1[nH]cnc2nc(-c3ccccc3)c(-c3ccccc3)nc12 | – | inconclusive [inhibitor, partial curve]
CSc1nnc2c(n1)[nH]c1c(C)cccc12 | – | inconclusive [inhibitor, partial curve]
CC(OC(=O)C1CCN(S(=O)(=O)c2ccccc2)CC1)C(=O)Nc1ncc(Cl)cc1Cl (configuration not stated) | inactive: -11% | –
COc1ccc(C2C(C(=O)Nc3ccccn3)=C(C)Nc3ncnn32)c(OC)c1 (configuration not stated) | inactive: -4.84% | –
Cc1ccccc1C(=O)Nc1sc(C)c(C)c1C(=O)c1ccccc1 | – | active: 31.6 µM
COCCNC(=O)c1c[nH]n2c(=O)cc(C3CCN(C(=O)OC(C)(C)C)CC3)nc12 | – | inconclusive [inhibitor, full curve, poor fit]
Cn1c(=O)c2c(nc(N/N=C3\CCCc4ccccc43)n2Cc2ccc(F)cc2)n(C)c1=O | – | inconclusive [inhibitor, partial curve]
Oc1ccc(Br)cc1/C=N/n1cnc2ccccc21 | – | active: 14.1 µM
O=C(c1ccccc1)c1c[nH]c(C(=O)NCc2cccnc2)c1 | – | inconclusive [inhibitor, partial curve]
O=C(NC1CCCCC1)c1nn2c(C(F)(F)F)cc(-c3ccco3)nc2c1Br | inactive: -11.9% | –
C1=CC2c3ccccc3NC(c3ccncc3)C2C1 (configuration not stated) | – | active: 22.4 µM
O=C(CSc1nnc(-c2cccs2)o1)OCc1ccccc1 | – | inconclusive [inhibitor, partial curve]
CCCCNc1ncnc2c1cnn2-c1ccccc1 | – | inconclusive [inhibitor, partial curve]
Cn1cnnc1SCC(=O)N1CCC(Cc2ccccc2)CC1 | inactive: -3.24% | –
O=C(Cc1nn[nH]n1)c1ccccc1O | inactive: 0.685% | –
COCC(=O)N(Cc1cc2cc(OC)ccc2[nH]c1=O)c1ccccc1 | – | inconclusive [inhibitor, partial curve]
COc1ccc2cc(CCNC(=O)c3ccc(Br)o3)c(=O)[nH]c2c1 | – | inconclusive [inhibitor, partial curve]
COC(=O)c1c(NC(=O)CCc2ccc(C)o2)sc(C)c1C | – | inconclusive [inhibitor, single point]
CCN(CC)S(=O)(=O)c1cc(NC(=O)COC(=O)CCC(=O)c2ccc(F)cc2)ccc1C | inactive: -18.7% | –

Structure (SMILES) | activity change, negative = inhibition | Potency
Cc1ccccc1-n1c(=O)c(C#N)cc2c(=O)n3ccccc3nc21 | – | inconclusive [inhibitor, partial curve]
CC(C)(C)NC(=O)Cc1ccc(S(=O)(=O)N2CCCC2)s1 | inactive: -5.3% | –
CCc1nc(NCCN)c(C#N)c2c1CSC(C)(C)C2 | – | inconclusive [inhibitor, partial curve]
O=C1C2C3C=CC(C4CC34)C2C(=O)N1/N=C/c1ccc([N+](=O)[O-])s1 (configuration not stated) | – | inconclusive [inhibitor, full curve, poor fit]
c1cncc(Nc2nc(-c3cccs3)cs2)c1 | – | inconclusive [inhibitor, partial curve]
CN(c1ccc(OCC(=O)OCC(=O)Nc2ccccc2)cc1)S(=O)(=O)c1cccs1 | inactive: -15.5% | –
CCCCN(C)Cc1c(C)[nH]c2c(Cl)cccc2c1=O | – | inconclusive [inhibitor, single point]
CCN(CC(=O)NCc1ccccn1)S(=O)(=O)c1ccc(Cl)cc1 | – | active: 22.4 µM
C(=N\n1cnnc1)/c1nc2ccccc2[nH]1 | – | inconclusive [inhibitor, partial curve]
CN(C)C(=O)c1ccc(NC(=O)c2cc(-n3cnnc3)ccc2Cl)cc1 | – | inconclusive [inhibitor, single point]
COc1ccc(-c2cc(C#N)nc(Oc3ccc(Cl)cc3)n2)cc1 | – | inconclusive [inhibitor, partial curve]
CCN1CCc2nc(NC(=O)CC(c3ccccc3)c3ccccc3)sc2C1 | – | inconclusive [inhibitor, partial curve, poor fit]
CCOc1ccccc1-c1nn2c(Cc3ccccc3)nnc2s1 | – | inconclusive [inhibitor, partial curve]
Cc1n[nH]c(=S)n1/N=C/c1ccccc1OCc1ccc(Cl)cc1 | – | active: 10 µM
O=C(CSc1nnc(-c2ccccc2Br)o1)N1CCN(C(=O)c2ccco2)CC1 | – | active: 28.2 µM
C=CCc1c(OC)ccc2ccc(=O)oc12 | – | inconclusive [inhibitor, partial curve]
COc1ccc(C(=O)N2CCC3(CC2)CN(c2ncccn2)C3)cc1 | – | inconclusive [inhibitor, partial curve]
O=C(Oc1cccc(NC(=O)c2cccs2)c1)c1cccc(S(=O)(=O)N2CCCC2)c1 | – | inconclusive [inhibitor, partial curve]
COc1ccc(-n2nc3cc(C)c(N)c(Br)c3n2)cc1 | – | inconclusive [inhibitor, full curve]
Fc1ccc(-c2cnc(-c3cccs3)o2)cc1 | – | inconclusive [inhibitor, partial curve]
CCOC(=O)c1c(NC(=O)CCC(=O)O)sc2c1CCCCC2 | – | active: 8.91 µM
Cc1ccc(C2CC(=O)N3CN(c4ccc(Br)cc4)CSC3=C2C#N)o1 (configuration not stated) | – | inconclusive [inhibitor, full curve]
Cc1oc(-c2ccc3c(c2)OCCO3)cc1C(=O)O | – | inconclusive [inhibitor, partial curve]
Cc1ccc(NS(=O)(=O)c2cccc(C(=O)N/N=C/c3c(C)nn(-c4ccccc4)c3N3CCCC3)c2)c(C)c1 | inactive: -24.5% | –

Structure (SMILES) | activity change, negative = inhibition | Potency
c1ccc(-n2ncc3c(NCc4cccs4)ncnc32)cc1 | – | active: 5.01 µM
CCC(Sc1nc2ccc(N)cc2s1)C(=O)Nc1nccs1 (configuration not stated) | – | active: 25.1 µM
CC(C)CC(=O)NC(=S)NNC(=O)c1ccc([N+](=O)[O-])cc1 | – | active: 31.6 µM
O=C1CC(c2ccco2)Cc2nc(N3CCc4ccccc4C3)ncc21 (configuration not stated) | – | inconclusive [inhibitor, partial curve, poor fit]
c1ccc(-c2nc(-c3cccs3)[nH]c2-c2ccccc2)cc1 | – | inconclusive [inhibitor, partial curve]
Cc1cccc(NC(=O)CSc2nnc(NC(=O)c3ccc(S(=O)(=O)N4CCOCC4)cc3)s2)c1C | – | inconclusive [inhibitor, partial curve]
FC(F)(F)c1cccc(-c2cc3ccccc3nc2N2CCCC2)c1 | – | inconclusive [inhibitor, partial curve]
COc1ccccc1NC(=S)NNC(=O)c1nn(C)cc1Cl | inactive: -17.8% | –
Cc1cccc(N(C(=O)Nc2ccccc2)C2=NCC(C)S2)c1 (configuration not stated) | – | active: 17.8 µM
Cc1nn(CCC(N)=O)c2nc(-c3cccs3)cc(C(F)(F)F)c12 | – | inconclusive [inhibitor, partial curve]
COCC(=O)N1CCC2(CC1)CN(c1ccc(-c3ccccc3)cc1)C2 | – | inconclusive [inhibitor, partial curve]
Cc1ccccc1OCC(=O)Nc1cccc2nsnc12 | – | inconclusive [inhibitor, single point]
c1ccc(CSCc2cn3ccsc3n2)cc1 | – | inconclusive [inhibitor, partial curve]
CN1CCCc2cc3c(C(F)(F)F)cc(=O)oc3nc21 | – | inconclusive [inhibitor, partial curve]
COc1cccc(-n2sc3c(c2=S)-c2cc(OC)ccc2NC3(C)C)c1 | inactive: -5.28% | –
CCOC(=O)c1c(N)sc2c1CCC(CC)C2 (configuration not stated) | – | inconclusive [inhibitor, partial curve]
Clc1cc2nc3ccccn3c2cc1Cl | – | inconclusive [inhibitor, full curve]
CCCc1cc(C(=O)Nc2sc3c(c2C#N)CCC3)no1 | – | active: 28.2 µM
C=CCn1c(SCC(=O)c2ccccc2)nnc1-c1cc2ccccc2o1 | – | active: 14.1 µM
O=C(c1ccccc1)N1CCc2ccccc21 | – | active: 28.2 µM
CN1C=CC2=C(C#N)C(N)C(C#N)(C#N)C(c3ccccc3)C2C1 (configuration not stated) | – | inconclusive [inhibitor, partial curve]
N#C/C(=C/c1ccc(OCc2ccccc2)cc1)C(=O)NC1CCCCC1 | – | inconclusive [inhibitor, partial curve]
COc1ccc(/C=N/NC(=O)c2cc(-c3ccc(C)cc3C)nc3ccccc23)cc1COC(C)=O | – | inconclusive [inhibitor, partial curve]
Nc1nonc1C(=Nc1ccc(Br)cc1)NO | – | inconclusive [inhibitor, single point]
